# Data published in paper PMC8007633, “The effect of Aspalathus linearis (Burm.f.) R.Dahlgren and its compounds on tyrosinase and melanogenesis” (Scientific Reports, 2021).
# B1: mushroom tyrosinase (Agaricus bisporus) (protein)
# chain: MSDKKSLMPLVGIPGEIKNRLNILDFVKNDKFFTLYVRALQVLQARDQSDYSSFFQLGGIHGLPYTEWAKAQPQLHLYKANYCTHGTVLFPTWHRAYESTWEQTLWEAAGTVAQRFTTSDQAEWIQAAKDLRQPFWDWGYWPNDPDFIGLPDQVIRDKQVEITDYNGTKIEVENPILHYKFHPIEPTFEGDFAQWQTTMRYPDVQKQENIEGMIAGIKAAAPGFREWTFNMLTKNYTWELFSNHGAVVGAHANSLEMVHNTVHFLIGRDPTLDPLVPGHMGSVPHAAFDPIFWMHHCNVDRLLALWQTMNYDVYVSEGMNREATMGLIPGQVLTEDSPLEPFYTKNQDPWQSDDLEDWETLGFSYPDFDPVKGKSKEEKSVYINDWVHKHYG
# notes: purchased Sigma-Aldrich Co. LLC, St. Louis, MO, USA
# B2: tyrosinase (Agaricus bisporus) (protein)
# chain: B1 chain
# notes: as for B1
# Assays:
# [1] = substrate: N[C@@H](Cc1ccc(O)c(O)c1)C(=O)O; assay: purified protein, by the assay type; format: biochemical, mushroom; details: other: michaelis constant; pH 6.5; 37.0 °C
# [2] = substrate: N[C@@H](Cc1ccc(O)c(O)c1)C(=O)O; assay: Tyrosinase enzyme kinetics in the absence of the substrate (subversive substrate properties); format: biochemical, mushroom; details: other: compound as substrate, absence of L-dopa; pH 6.5; 37.0 °C
# [3] = substrate: O=C(CCc1ccc(O)c(O)c1)c1c(O)cc(O)c(C2OC(CO)C(O)C(O)C2O)c1O; assay: purified protein, by the assay type; details: other: compound as substrate, absence of L-dopa; pH 6.5; 37.0 °C
Protein,Km [1] [µM],Km [2],kcat [2] [s⁻¹],Km [3],kcat [3] [s⁻¹]
B1,143.80 ± 25.43,–,–,–,–
B2,–,143.8 (± 25.4) µM,13.7,1733 (± 660.6) µM,41.3
